We go through 5 molecules from article PMC10648259.

Results are given in words; binding and its absence hold for the method and conditions named. For some assays here: In cells and extracts the contact can be indirect. Some binding calls cover weakened binding; strength is not graded here. Where a sequence is shown, tags or fusion partners need not be part of it.

Assay [1] deals with T1, Flag-GBP2 (full-length mouse guanylate-binding protein 2) (mouse) (UniProt Q9Z0E6).
T1 sequence: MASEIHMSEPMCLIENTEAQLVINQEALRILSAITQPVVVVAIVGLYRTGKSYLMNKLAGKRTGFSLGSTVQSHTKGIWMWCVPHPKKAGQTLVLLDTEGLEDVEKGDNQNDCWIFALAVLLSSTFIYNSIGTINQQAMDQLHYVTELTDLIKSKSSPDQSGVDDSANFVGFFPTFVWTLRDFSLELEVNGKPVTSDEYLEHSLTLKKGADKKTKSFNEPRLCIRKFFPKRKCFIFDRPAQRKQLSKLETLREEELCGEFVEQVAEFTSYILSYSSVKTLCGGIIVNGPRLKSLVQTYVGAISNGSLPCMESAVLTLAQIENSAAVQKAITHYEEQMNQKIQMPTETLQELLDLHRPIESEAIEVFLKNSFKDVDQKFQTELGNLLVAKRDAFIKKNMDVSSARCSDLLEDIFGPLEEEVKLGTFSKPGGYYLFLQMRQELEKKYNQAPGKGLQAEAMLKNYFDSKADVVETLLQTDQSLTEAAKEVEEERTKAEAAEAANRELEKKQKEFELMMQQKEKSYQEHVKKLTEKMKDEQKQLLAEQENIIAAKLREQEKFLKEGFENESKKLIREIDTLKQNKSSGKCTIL
Put plainly: co-IP.

Assay [2] addresses T2, GST-GBP2 (mouse (cDNA from RAW264.7 cells)) (UniProt Q9Z0E6).
T2 sequence: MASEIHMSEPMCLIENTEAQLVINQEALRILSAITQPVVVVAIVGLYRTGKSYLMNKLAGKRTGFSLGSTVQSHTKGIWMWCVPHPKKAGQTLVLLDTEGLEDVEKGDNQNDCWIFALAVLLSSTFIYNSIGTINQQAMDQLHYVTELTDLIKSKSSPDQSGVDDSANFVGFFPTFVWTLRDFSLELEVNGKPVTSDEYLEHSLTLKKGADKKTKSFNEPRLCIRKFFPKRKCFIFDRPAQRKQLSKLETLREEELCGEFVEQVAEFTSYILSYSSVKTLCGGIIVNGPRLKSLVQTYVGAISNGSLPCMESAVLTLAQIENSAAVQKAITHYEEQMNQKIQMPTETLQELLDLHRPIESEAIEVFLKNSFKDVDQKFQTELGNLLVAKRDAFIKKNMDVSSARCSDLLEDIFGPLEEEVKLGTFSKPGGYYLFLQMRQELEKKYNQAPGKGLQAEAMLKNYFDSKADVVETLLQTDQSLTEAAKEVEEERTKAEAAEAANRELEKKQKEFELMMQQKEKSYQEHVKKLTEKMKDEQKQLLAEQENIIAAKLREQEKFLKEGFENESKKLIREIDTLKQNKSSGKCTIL
The assay is described as follows: pull-down; both purified.

Assay [3] addresses HA-PAPL (HA-tagged poly(A) polymerase catalytic subunit of ECTV) (ectromelia virus (ECTV-Moscow)) (UniProt Q8JLG4). Put plainly: co-IP.

For “HA-PAPL (HA-tagged poly(A) polymerase catalytic subunit of ECTV) (from UniProt Q8JLG4 1-479)”, the binding entry in assay [1] is given as “binds”. On to “HA-glutaredoxin-1 (ECTV EVM053) (from UniProt Q8JLF5 1-108)”, for which the binding entry in assay [1] is recorded as “binds”.

Take “HA-profilin (ECTV EVM141) (from UniProt Q8JL78 1-134)”: in assay [1], the binding entry was “binds”. Consider “His-PAPL (His-tagged PAPL of ECTV, renatured) (from UniProt Q8JLG4 1-479)”, for which the binding result in assay [2] is reported as “binds”.

B1: Flag-GBP2 (full-length mouse guanylate-binding protein 2) (protein, UniProt Q9Z0E6 1-589)
chain: MASEIHMSEPMCLIENTEAQLVINQEALRILSAITQPVVVVAIVGLYRTGKSYLMNKLAGKRTGFSLGSTVQSHTKGIWMWCVPHPKKAGQTLVLLDTEGLEDVEKGDNQNDCWIFALAVLLSSTFIYNSIGTINQQAMDQLHYVTELTDLIKSKSSPDQSGVDDSANFVGFFPTFVWTLRDFSLELEVNGKPVTSDEYLEHSLTLKKGADKKTKSFNEPRLCIRKFFPKRKCFIFDRPAQRKQLSKLETLREEELCGEFVEQVAEFTSYILSYSSVKTLCGGIIVNGPRLKSLVQTYVGAISNGSLPCMESAVLTLAQIENSAAVQKAITHYEEQMNQKIQMPTETLQELLDLHRPIESEAIEVFLKNSFKDVDQKFQTELGNLLVAKRDAFIKKNMDVSSARCSDLLEDIFGPLEEEVKLGTFSKPGGYYLFLQMRQELEKKYNQAPGKGLQAEAMLKNYFDSKADVVETLLQTDQSLTEAAKEVEEERTKAEAAEAANRELEKKQKEFELMMQQKEKSYQEHVKKLTEKMKDEQKQLLAEQENIIAAKLREQEKFLKEGFENESKKLIREIDTLKQNKSSGKCTIL
Take B1: the binding result in assay [3] is “binds”.
